Source: PubChem BioAssay AID344 (DTP/NCI, 2004)
Toxic doses and inconclusive results are not listed. For part of its entries the source gives two or more results. The other results are left out here. An entry can have further records. Values that stand side by side differ for a reason that is not stated; they may come from other doses, times, organisms or constructs than stated.

Tested on: mice, LPC-1 plasma cell tumor ip, median survival T/C
Experiment: NCI In Vivo Anticancer Drug Screen. Data for tumor model Lieberman Plasma Cell No. 1 (LPC-1) (intraperitoneal) in unknown mice
Settings: endpoint: median survival time, higher = longer survival
Experimental: The antitumor activity of compounds was measured in mice bearing transplantable tumors. Survival or tumor size were measured and the results are expressed as the measurement made in the treated group (T) divided by the measurement made in the vehicle treated control group (C). The tumor model used in this assay is Lieberman Plasma Cell No. 1 (LPC-1) (intraperitoneal) in unknown mice

Compound	T/C (dose: 25.0 mg/kg/injection, schedule: Q01DX009 (ip), vehicle: saline)	T/C (dose: 80.0 mg/kg/injection, schedule: Q01DX028 (sc), vehicle: other)	T/C (dose: 270.0 mg/kg/injection, schedule: Q01DX028 (sc), vehicle: other)
O=P1(N(CCCl)CCCl)NCCCO1 (stereo not drawn)	119 % of control and 167 % of control	–	–
CS(=O)(=O)OCCN(CCOS(C)(=O)=O)c1ccc(/C=N/Nc2ncnc3nc[nH]c23)cc1	–	105 % of control and 156 % of control	115 % of control and 155 % of control
